# Data: the supplement of paper PMC8728848
# This is one part of the list.
# What was measured:
# Experiment in all cases: glycan array binding signal (z-score within array); higher = stronger binding
# Conditions in all cases: glycan notation: IUPAC condensed, linker removed
# [1] = molecular target: Neu5Ac(a2-3)Gal(b1-3)]Neu5Ac(a2-3)Gal(b1-4)]GlcNAc
# In short: (§1)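 Glycan array data were curated from 3228 arrays in the Consortium for Functional Glycomics database and kept only where the protein sequence was available. Glycan names were converted to IUPAC-condensed notation, and columns mapping to the same glycan were averaged. The binding signal is a within-array Z-score, averaged across arrays of the same protein sequence at different concentrations or buffers and across linkers. Negative Z-scores can be read as non-binding.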
# [2] = molecular target: Neu5Ac(a2-3)Gal(b1-4)Glc
# In short: as §1
# [3] = molecular target: Neu5Ac(a2-3)Gal(b1-4)GlcNAc
# In short: as §1
# [4] = molecular target: Neu5Ac(a2-3)Gal(b1-4)GlcNAc(b1-2)Man
# In short: as §1
# [5] = molecular target: Neu5Ac(a2-3)Gal(b1-4)GlcNAc(b1-2)Man(a1-3)[GlcNAc(b1-4)][Neu5Ac(a2-3)Gal(b1-4)GlcNAc(b1-2)Man(a1-6)]Man(b1-4)GlcNAc(b1-4)GlcNAc
# In short: as §1
# [6] = molecular target: Neu5Ac(a2-3)Gal(b1-4)GlcNAc(b1-2)Man(a1-3)[Neu5Ac(a2-3)Gal(b1-4)GlcNAc(b1-2)Man(a1-6)]Man(b1-4)GlcNAc(b1-4)GlcNAc
# In short: as §1
# [7] = molecular target: Neu5Ac(a2-3)Gal(b1-4)GlcNAc(b1-2)Man(a1-3)[Neu5Ac(a2-3)Gal(b1-4)GlcNAc(b1-2)Man(a1-6)]Man(b1-4)GlcNAc(b1-4)[Fuc(a1-6)]GlcNAc
# In short: as §1
# [8] = molecular target: Neu5Ac(a2-3)Gal(b1-4)GlcNAc(b1-2)Man(a1-3)[Neu5Ac(a2-6)Gal(b1-4)GlcNAc(b1-2)Man(a1-6)]Man(b1-4)GlcNAc(b1-4)GlcNAc
# In short: as §1
# [9] = molecular target: Neu5Ac(a2-3)Gal(b1-4)GlcNAc(b1-2)[Neu5Ac(a2-3)Gal(b1-4)GlcNAc(b1-4)]Man(a1-3)[GlcNAc(b1-4)][Neu5Ac(a2-3)Gal(b1-4)GlcNAc(b1-2)[Neu5Ac(a2-3)Gal(b1-4)GlcNAc(b1-6)]Man(a1-6)]Man(b1-4)GlcNAc(b1-4)GlcNAc
# In short: as §1
# [10] = molecular target: Neu5Ac(a2-3)Gal(b1-4)GlcNAc(b1-2)[Neu5Ac(a2-3)Gal(b1-4)GlcNAc(b1-4)]Man(a1-3)[GlcNAc(b1-4)][Neu5Ac(a2-3)Gal(b1-4)GlcNAc(b1-4)Man(a1-6)]Man(b1-4)GlcNAc(b1-4)GlcNAc
# In short: as §1
# [11] = molecular target: Neu5Ac(a2-3)Gal(b1-4)GlcNAc(b1-2)[Neu5Ac(a2-3)Gal(b1-4)GlcNAc(b1-6)]Man(a1-6)[Neu5Ac(a2-3)Gal(b1-4)GlcNAc(b1-2)Man(a1-3)][GlcNAc(b1-4)]Man(b1-4)GlcNAc(b1-4)GlcNAc
# In short: as §1
# [12] = molecular target: Neu5Ac(a2-3)Gal(b1-4)GlcNAc(b1-3)Gal
# In short: as §1
# [13] = molecular target: Neu5Ac(a2-3)Gal(b1-4)GlcNAc(b1-3)Gal(b1-3)GlcNAc
# In short: as §1
# [14] = molecular target: Neu5Ac(a2-3)Gal(b1-4)GlcNAc(b1-3)Gal(b1-4)GlcNAc
# In short: as §1
# [15] = molecular target: Neu5Ac(a2-3)Gal(b1-4)GlcNAc(b1-3)Gal(b1-4)GlcNAc(b1-2)Man(a1-3)[Neu5Ac(a2-3)Gal(b1-4)GlcNAc(b1-3)Gal(b1-4)GlcNAc(b1-2)Man(a1-6)]Man(b1-4)GlcNAc(b1-4)GlcNAc
# In short: as §1
# [16] = molecular target: Neu5Ac(a2-3)Gal(b1-4)GlcNAc(b1-3)Gal(b1-4)GlcNAc(b1-3)Gal(b1-4)GlcNAc
# In short: as §1
# [17] = molecular target: Neu5Ac(a2-3)Gal(b1-4)GlcNAc(b1-3)Gal(b1-4)GlcNAc(b1-3)Gal(b1-4)GlcNAc(b1-2)Man(a1-3)[Neu5Ac(a2-3)Gal(b1-4)GlcNAc(b1-3)Gal(b1-4)GlcNAc(b1-3)Gal(b1-4)GlcNAc(b1-2)Man(a1-6)]GalNAc
# In short: as §1
# [18] = molecular target: Neu5Ac(a2-3)Gal(b1-4)GlcNAc(b1-3)Gal(b1-4)GlcNAc(b1-3)GalNAc
# In short: as §1
# [19] = molecular target: Neu5Ac(a2-3)Gal(b1-4)GlcNAc(b1-3)Gal(b1-4)GlcNAc(b1-3)[Neu5Ac(a2-3)Gal(b1-4)GlcNAc(b1-3)Gal(b1-4)GlcNAc(b1-6)]GalNAc
# In short: as §1
# [20] = molecular target: Neu5Ac(a2-3)Gal(b1-4)GlcNAc(b1-3)Gal(b1-4)GlcNAc(b1-6)[Gal(b1-3)]GalNAc
# In short: as §1
# [21] = molecular target: Neu5Ac(a2-3)Gal(b1-4)GlcNAc(b1-3)Gal(b1-4)[Fuc(a1-3)]GlcNAc
# In short: as §1
# [22] = molecular target: Neu5Ac(a2-3)Gal(b1-4)GlcNAc(b1-3)GalNAc
# In short: as §1
# [23] = molecular target: Neu5Ac(a2-3)Gal(b1-4)GlcNAc(b1-3)[Neu5Ac(a2-3)Gal(b1-4)GlcNAc(b1-6)]GalNAc
# In short: as §1
# [24] = molecular target: Neu5Ac(a2-3)Gal(b1-4)GlcNAc(b1-6)GalNAc
# In short: as §1
# [25] = molecular target: Neu5Ac(a2-3)Gal(b1-4)GlcNAc(b1-6)[Gal(b1-3)]GalNAc
# In short: as §1
# [26] = molecular target: Neu5Ac(a2-3)Gal(b1-4)GlcNAc(b1-6)[Neu5Ac(a2-3)Gal(b1-3)]GalNAc
# In short: as §1
# [27] = molecular target: Neu5Ac(a2-3)Gal(b1-4)GlcNAc6S
# In short: as §1
# [28] = molecular target: Neu5Ac(a2-3)Gal(b1-4)[Fuc(a1-3)]GlcNAc
# In short: as §1
# [29] = molecular target: Neu5Ac(a2-3)Gal(b1-4)[Fuc(a1-3)]GlcNAc(b1-2)Man
# In short: as §1
# [30] = molecular target: Neu5Ac(a2-3)Gal(b1-4)[Fuc(a1-3)]GlcNAc(b1-3)Gal
# In short: as §1
# [31] = molecular target: Neu5Ac(a2-3)Gal(b1-4)[Fuc(a1-3)]GlcNAc(b1-3)Gal(b1-4)GlcNAc
# In short: as §1
# [32] = molecular target: Neu5Ac(a2-3)Gal(b1-4)[Fuc(a1-3)]GlcNAc(b1-3)Gal(b1-4)[Fuc(a1-3)]GlcNAc(b1-3)Gal(b1-4)[Fuc(a1-3)]GlcNAc
# In short: as §1
# [33] = molecular target: Neu5Ac(a2-3)Gal(b1-4)[Fuc(a1-3)]GlcNAc(b1-3)GalNAc
# In short: as §1
# [34] = molecular target: Neu5Ac(a2-3)Gal(b1-4)[Fuc(a1-3)]GlcNAc(b1-6)[Gal(b1-3)]GalNAc
# In short: as §1
# [35] = molecular target: Neu5Ac(a2-3)Gal(b1-4)[Fuc(a1-3)]GlcNAc(b1-6)[Neu5Ac(a2-3)Gal(b1-3)]GalNAc
# In short: as §1
# [36] = molecular target: Neu5Ac(a2-3)Gal(b1-4)[Fuc(a1-3)]GlcNAc6S
# In short: as §1
# [37] = molecular target: Neu5Ac(a2-3)Gal6S(b1-4)GlcNAc
# In short: as §1
# [38] = molecular target: Neu5Ac(a2-3)Gal6S(b1-4)[Fuc(a1-3)]GlcNAc
# In short: as §1
binder,measurement,setting,value
APVPVTKLVCDGDTYKCTAYLDFGDGRWVAQWDTNVFHTG [PhoSpL (Pholiota squarrosa)],glycan array binding signal (z-score),[1],-0.288
same,glycan array binding signal (z-score),[2],-0.236
same,glycan array binding signal (z-score),[3],-0.04
same,glycan array binding signal (z-score),[4],0.306
same,glycan array binding signal (z-score),[5],-0.113
same,glycan array binding signal (z-score),[6],-0.406
same,glycan array binding signal (z-score),[7],0.562
same,glycan array binding signal (z-score),[8],-0.013
same,glycan array binding signal (z-score),[9],-0.261
same,glycan array binding signal (z-score),[10],-0.329
same,glycan array binding signal (z-score),[11],-0.272
same,glycan array binding signal (z-score),[12],-0.465
same,glycan array binding signal (z-score),[13],-0.135
same,glycan array binding signal (z-score),[14],0.503
same,glycan array binding signal (z-score),[15],0.453
same,glycan array binding signal (z-score),[16],-0.644
same,glycan array binding signal (z-score),[17],0.858
same,glycan array binding signal (z-score),[18],0.1
same,glycan array binding signal (z-score),[19],-0.169
same,glycan array binding signal (z-score),[20],-0.091
same,glycan array binding signal (z-score),[21],-0.102
same,glycan array binding signal (z-score),[22],0.082
same,glycan array binding signal (z-score),[23],-0.062
same,glycan array binding signal (z-score),[24],-0.386
same,glycan array binding signal (z-score),[25],0.254
same,glycan array binding signal (z-score),[26],-0.322
same,glycan array binding signal (z-score),[27],0.087
same,glycan array binding signal (z-score),[28],-0.269
same,glycan array binding signal (z-score),[29],-0.453
same,glycan array binding signal (z-score),[30],-0.313
same,glycan array binding signal (z-score),[31],0.226
same,glycan array binding signal (z-score),[32],-0.411
same,glycan array binding signal (z-score),[33],0.095
same,glycan array binding signal (z-score),[34],-0.241
same,glycan array binding signal (z-score),[35],-0.195
same,glycan array binding signal (z-score),[36],-0.286
same,glycan array binding signal (z-score),[37],-0.448
same,glycan array binding signal (z-score),[38],-0.824
